# Data from the supplement of paper PMC8728848.
# The list shows a part of the results.
# B1: ClecSol-Fc (Cryptosporidium parvum) (protein)
# chain: CPEGWISNGEKTRCFKLVTFDRPRTFSHGFKACNDLGGTEVETRRRNGSKETNEYPVTLASVYKLSDEEAIRRTLVEQGDIHKTANGCFVGLRKYAFFRYPPGWYWIDSGSPVSVRDSEINWTSSYNASWLLRFKFPFEKCGFFDIGGLGRRPCWLIDSELSCAVCGTVAYDSGGLNPNKYSELIKQTDEIISKEPKLDLPGYNNLNCTDAWENNLSVGLCQNVSNILDSAWSSYQSSLNFPSINFNWKEDSTNEGGDQVYHNSYLDLPRYKQKKTFYWDQDPGTIPALSDEMKLIGLSAQPTYHPLDRSSSGSFESDSTESGRANEERNDTLEEMIYKQSSDSIEDILVPVTKPIFSDYSSIGRNSGVEEVYSSNVSTISSKGVVFPNTTTSSDNDFTKNNPANSSKHTSTSTTTNTTTTTTRTTTTTTTTTTTTTTTTTTTTETTTTKKSTTATKNTTTT
# Assays:
# Assay in all cases: glycan array binding signal (z-score within array); higher = stronger binding
# Details in all cases: glycan notation: IUPAC condensed, linker removed
# [1] = target: Gal(b1-3)GlcNAc(b1-2)Man(a1-3)[Gal(b1-3)GlcNAc(b1-2)Man(a1-6)]Man(b1-4)GlcNAc(b1-4)[Fuc(a1-6)]GlcNAc
# In short: (§1)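 Negative Z-scores can be read as non-binding. The Z-score is calculated within each array and then averaged across arrays of one protein sequence at different concentrations or buffers and across linkers. Arrays, 3228 in all, were curated from the Consortium for Functional Glycomics database and kept only where the protein sequence was available.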
# [2] = target: Gal(b1-3)GlcNAc(b1-2)Man(a1-3)[GlcNAc(b1-4)][Gal(b1-3)GlcNAc(b1-2)Man(a1-6)]Man(b1-4)GlcNAc(b1-4)GlcNAc
# In short: as §1
# [3] = target: Gal(b1-3)GlcNAc(b1-2)[Gal(b1-3)GlcNAc(b1-6)]Man(a1-6)[Gal(b1-3)GlcNAc(b1-2)Man(a1-3)]Man(b1-4)GlcNAc(b1-4)GlcNAc
# In short: as §1
# [4] = target: Gal(b1-3)GlcNAc(b1-3)Gal(b1-3)GlcNAc
# In short: as §1
# [5] = target: Gal(b1-3)GlcNAc(b1-3)Gal(b1-4)Glc
# In short: as §1
# [6] = target: Gal(b1-3)GlcNAc(b1-3)Gal(b1-4)GlcNAc
# In short: as §1
# [7] = target: Gal(b1-3)GlcNAc(b1-3)Gal(b1-4)GlcNAc(b1-2)Man(a1-3)[Gal(b1-3)GlcNAc(b1-3)Gal(b1-4)GlcNAc(b1-2)Man(a1-6)]Man(b1-4)GlcNAc(b1-4)GlcNAc
# In short: as §1
# [8] = target: Gal(b1-3)GlcNAc(b1-3)Gal(b1-4)GlcNAc(b1-2)[Gal(b1-3)GlcNAc(b1-3)Gal(b1-4)GlcNAc(b1-6)]Man(a1-6)[Gal(b1-3)GlcNAc(b1-3)Gal(b1-4)GlcNAc(b1-2)Man(a1-3)]Man(b1-4)GlcNAc(b1-4)[Fuc(a1-6)]GlcNAc
# In short: as §1
# [9] = target: Gal(b1-3)GlcNAc(b1-3)Gal(b1-4)GlcNAc(b1-3)Gal(b1-4)GlcNAc(b1-2)[Gal(b1-3)GlcNAc(b1-3)Gal(b1-4)GlcNAc(b1-3)Gal(b1-4)GlcNAc(b1-6)]Man(a1-6)[Gal(b1-3)GlcNAc(b1-3)Gal(b1-4)GlcNAc(b1-3)Gal(b1-4)GlcNAc(b1-2)Man(a1-3)]Man(b1-4)GlcNAc(b1-4)[Fuc(a1-6)]GlcNAc
# In short: as §1
# [10] = target: Gal(b1-3)GlcNAc(b1-3)Gal(b1-4)GlcNAc(b1-6)[Gal(b1-3)GlcNAc(b1-3)]Gal(b1-4)Glc
# In short: as §1
# [11] = target: Gal(b1-3)GlcNAc(b1-3)Gal(b1-4)[Fuc(a1-3)]GlcNAc
# In short: as §1
# [12] = target: Gal(b1-3)GlcNAc(b1-3)Gal(b1-4)[Fuc(a1-3)]GlcNAc(b1-6)[Gal(b1-3)GlcNAc(b1-3)]Gal(b1-4)Glc
# In short: as §1
# [13] = target: Gal(b1-3)GlcNAc(b1-3)GalNAc
# In short: as §1
# [14] = target: Gal(b1-3)GlcNAc(b1-6)Gal(b1-4)GlcNAc
# In short: as §1
# [15] = target: Gal(b1-3)GlcNAc(b1-6)GalNAc
# In short: as §1
# [16] = target: Gal(b1-3)GlcNAc(b1-6)[Gal(b1-3)]GalNAc
# In short: as §1
# Gal(b1-3)GlcNAc6S = target: Gal(b1-3)GlcNAc6S
# In short: as §1
# [17] = target: Gal(b1-3)[Fuc(a1-4)]GlcNAc
# In short: as §1
# [18] = target: Gal(b1-3)[Fuc(a1-4)]GlcNAc(b1-2)Man
# In short: as §1
# [19] = target: Gal(b1-3)[Fuc(a1-4)]GlcNAc(b1-2)Man(a1-3)[Gal(b1-3)[Fuc(a1-4)]GlcNAc(b1-2)Man(a1-6)]Man(b1-4)GlcNAc(b1-4)[Fuc(a1-6)]GlcNAc
# In short: as §1
# [20] = target: Gal(b1-3)[Fuc(a1-4)]GlcNAc(b1-3)Gal(b1-3)[Fuc(a1-4)]GlcNAc
# In short: as §1
# [21] = target: Gal(b1-3)[Fuc(a1-4)]GlcNAc(b1-3)Gal(b1-4)[Fuc(a1-3)]GlcNAc
# In short: as §1
# [22] = target: Gal(b1-3)[Fuc(a1-4)]GlcNAc(b1-6)GalNAc
# In short: as §1
# [23] = target: Gal(b1-3)[GlcNAc(b1-6)]GalNAc
# In short: as §1
# [24] = target: Gal(b1-3)[Neu5Ac(a2-6)]GalNAc
# In short: as §1
# [25] = target: Gal(b1-3)[Neu5Ac(a2-6)]GlcNAc(b1-4)Gal(b1-4)Glc
# In short: as §1
# [26] = target: Gal(b1-3)[Neu5Ac(b2-6)]GalNAc
# In short: as §1
# Gal(b1-4)Gal = target: Gal(b1-4)Gal
# In short: as §1
# [27] = target: Gal(b1-4)GalNAc(a1-3)[Fuc(a1-2)]Gal(b1-4)GlcNAc
# In short: as §1
# [28] = target: Gal(b1-4)GalNAc(b1-3)[Fuc(a1-2)]Gal(b1-4)GlcNAc
# In short: as §1
# Gal(b1-4)Glc = target: Gal(b1-4)Glc
# In short: as §1
# Gal(b1-4)Glc6S = target: Gal(b1-4)Glc6S
# In short: as §1
# Gal(b1-4)GlcNAc = target: Gal(b1-4)GlcNAc
# In short: as §1
# [29] = target: Gal(b1-4)GlcNAc(a1-6)Gal(b1-4)GlcNAc
# In short: as §1
# Gal(b1-4)GlcNAc(b1-2)Man = target: Gal(b1-4)GlcNAc(b1-2)Man
# In short: as §1
# [30] = target: Gal(b1-4)GlcNAc(b1-2)Man(a1-3)Man(b1-4)GlcNAc(b1-4)GlcNAc
# In short: as §1
# [31] = target: Gal(b1-4)GlcNAc(b1-2)Man(a1-3)[Gal(b1-4)GlcNAc(b1-2)Man(a1-6)]Man(b1-4)GlcNAc(b1-4)GlcNAc
# In short: as §1
binder,measurement,setting,value
B1,glycan array binding signal (z-score),[1],0.149
same,glycan array binding signal (z-score),[2],0.091
same,glycan array binding signal (z-score),[3],-0.182
same,glycan array binding signal (z-score),[4],0.054
same,glycan array binding signal (z-score),[5],-0.179
same,glycan array binding signal (z-score),[6],-0.214
same,glycan array binding signal (z-score),[7],-0.273
same,glycan array binding signal (z-score),[8],0.148
same,glycan array binding signal (z-score),[9],-0.189
same,glycan array binding signal (z-score),[10],-0.016
same,glycan array binding signal (z-score),[11],-0.218
same,glycan array binding signal (z-score),[12],-0.204
same,glycan array binding signal (z-score),[13],-0.2
same,glycan array binding signal (z-score),[14],-0.108
same,glycan array binding signal (z-score),[15],-0.18
same,glycan array binding signal (z-score),[16],-0.131
same,glycan array binding signal (z-score),Gal(b1-3)GlcNAc6S,-0.093
same,glycan array binding signal (z-score),[17],-0.042
same,glycan array binding signal (z-score),[18],-0.208
same,glycan array binding signal (z-score),[19],-0.172
same,glycan array binding signal (z-score),[20],-0.059
same,glycan array binding signal (z-score),[21],-0.152
same,glycan array binding signal (z-score),[22],0.049
same,glycan array binding signal (z-score),[23],-0.093
same,glycan array binding signal (z-score),[24],-0.235
same,glycan array binding signal (z-score),[25],-0.143
same,glycan array binding signal (z-score),[26],-0.149
same,glycan array binding signal (z-score),Gal(b1-4)Gal,-0.099
same,glycan array binding signal (z-score),[27],-0.218
same,glycan array binding signal (z-score),[28],-0.162
same,glycan array binding signal (z-score),Gal(b1-4)Glc,-0.122
same,glycan array binding signal (z-score),Gal(b1-4)Glc6S,0.045
same,glycan array binding signal (z-score),Gal(b1-4)GlcNAc,-0.04
same,glycan array binding signal (z-score),[29],0.157
same,glycan array binding signal (z-score),Gal(b1-4)GlcNAc(b1-2)Man,-0.066
same,glycan array binding signal (z-score),[30],-0.14
same,glycan array binding signal (z-score),[31],-0.22
